Laboratory results from the supplement of paper PMC3334620.
Whole data set: some 33,000 sequences, median “E-score (-0.5 to 0.5)” near -0.016, cut for the highest 2% near 0.32. The list shows a part of the results.

Molecular target: T1, Stp1 (UniProt B3LFK1)
T1 sequence: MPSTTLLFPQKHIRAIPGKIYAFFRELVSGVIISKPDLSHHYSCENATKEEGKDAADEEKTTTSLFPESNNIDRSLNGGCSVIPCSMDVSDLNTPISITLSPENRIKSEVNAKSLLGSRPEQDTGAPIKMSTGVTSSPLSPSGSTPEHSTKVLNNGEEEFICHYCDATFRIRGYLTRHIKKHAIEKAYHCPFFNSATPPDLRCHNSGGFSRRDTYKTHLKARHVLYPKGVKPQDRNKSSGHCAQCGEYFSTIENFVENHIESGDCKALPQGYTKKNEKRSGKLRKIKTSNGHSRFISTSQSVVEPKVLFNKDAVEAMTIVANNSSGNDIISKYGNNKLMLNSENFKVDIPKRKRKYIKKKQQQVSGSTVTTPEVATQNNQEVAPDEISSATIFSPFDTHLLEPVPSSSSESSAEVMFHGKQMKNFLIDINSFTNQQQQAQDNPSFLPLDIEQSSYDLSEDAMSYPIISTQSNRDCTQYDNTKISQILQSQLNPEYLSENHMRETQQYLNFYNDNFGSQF
Experiment: PBM E-score (8-mer binding enrichment) (E-score (-0.5 to 0.5)); higher = stronger / more preferred TF binding; most listed sequences are background and not binding sites
Conditions: protein concentration: 200 nM; construct: GST-full length
Description: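 Universal 'all 10-mer' protein binding microarrays (Agilent AMADID 015681) probed with GST-tagged S. cerevisiae TFs (full-length or DBD) made by in vitro transcription/translation (PURExpress), about 100-200 nM. Bound TF was detected with fluorescent anti-GST. Each ungapped 8-mer (which stands for itself and its reverse complement) is scored by the PBM enrichment score (E-score), a modified Wilcoxon-Mann-Whitney statistic from -0.5 to +0.5, computed with the Universal PBM Analysis Suite. Scale: above 0.35 generally sequence-specific binding.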

First: CTGAGAGA
Second: AGCGCTCC
The “PBM E-score” value of the first is lower: -0.143 for the first, -0.103 for the second.

Compared with GGAGCACA, ATGGTGTA is higher in “PBM E-score” value: -0.122 for the first, -0.108 for the second.

Compared with GGTGCGTA, AAAATTTG is higher in “PBM E-score” value: -0.113 for the first, 0.0391 for the second.

First: AACACGCG
Second: AGCGTAAA
The “PBM E-score” value of the first is higher: 0.127 for the first, 0.0234 for the second.

First: ATGCTAAA
Second: CAAAAATC
The “PBM E-score” value of the first is lower: -0.0375 for the first, -0.00222 for the second.

Compared with CCACAGCA, CATCTTGC is lower in “PBM E-score” value: 0.155 for the first, 0.152 for the second.

First: ACCGCAAT
Second: AGATAACT
The “PBM E-score” value of the first is higher: 0.133 for the first, -0.103 for the second.

Compared with ATTTGCCA, CATATGCC is higher in “PBM E-score” value: -0.0687 for the first, 0.0974 for the second.

First: GCGGATCA
Second: TCTCACCA
The “PBM E-score” value of the first is higher: 0.123 for the first, 0.00991 for the second.

First: GGTCAATA
Second: ATGGTTCG
The “PBM E-score” value of the first is lower: -0.136 for the first, -0.0957 for the second.

Compared with GAAGGTCC, ACACCTGG is higher in “PBM E-score” value: -0.245 for the first, -0.221 for the second.

Going from CGATGGGA to CCAGGGAA, the “PBM E-score” value rises from -0.0937 to -0.0576.

Going from GTGTCACA to ACGTTACC, the “PBM E-score” value falls from 0.119 to -0.0394.

Going from TGGGTTAA to ATTCAATC, the “PBM E-score” value rises from -0.219 to 0.089.

Compared with GTTCCAGA, CGTTGATA is higher in “PBM E-score” value: -0.0346 for the first, 0.293 for the second.

Going from GGGCCAAA to CACTGTGG, the “PBM E-score” value falls from -0.0489 to -0.106.

First: TAGACTAA
Second: AGGAGATG
The “PBM E-score” value of the first is lower: -0.132 for the first, -0.111 for the second.

Going from GCACATCA to GCAGCAGC, the “PBM E-score” value falls from 0.042 to 0.0301.

Going from ACGACGCG to ACGTACAG, the “PBM E-score” value falls from 0.129 to -0.0778.

Going from ACCACGCA to CATACGCC, the “PBM E-score” value rises from -0.187 to 0.126.

First: AGTGACTC
Second: AGTTCTAA
The “PBM E-score” value of the first is lower: -0.0307 for the first, -0.0232 for the second.

Compared with AACCGACG, AAACCATC is lower in “PBM E-score” value: 0.0748 for the first, -0.0403 for the second.

First: CCCCAATA
Second: GAGTTGGC
The “PBM E-score” value of the first is lower: -0.0985 for the first, -0.00796 for the second.

Compared with AGTAAGGC, CCGGAAGA is lower in “PBM E-score” value: 0.163 for the first, -0.0332 for the second.

First: ACGTGAGA
Second: CTGGATAA
The “PBM E-score” value of the first is lower: -0.0985 for the first, 0.0621 for the second.

First: GCTTTTTA
Second: ACTTATGA
The “PBM E-score” value of the first is higher: 0.173 for the first, -0.0427 for the second.

Compared with AGAGAGTG, ACCTTGGA is higher in “PBM E-score” value: -0.168 for the first, -0.138 for the second.

First: AAAGGTCC
Second: ATCCGGGC
The “PBM E-score” value of the first is higher: -0.118 for the first, -0.258 for the second.

Compared with AATCCCCG, GTTCGATA is higher in “PBM E-score” value: -0.187 for the first, 0.0816 for the second.

Compared with TAAGTCGA, AGGCCCCC is lower in “PBM E-score” value: -0.123 for the first, -0.448 for the second.

Compared with GTTCTCGA, AGGACGTG is lower in “PBM E-score” value: -0.0119 for the first, -0.0256 for the second.

Compared with AATTAATT, CTAGTGTC is lower in “PBM E-score” value: 0.0367 for the first, -0.162 for the second.

Compared with AATGCGTA, GTGCGTGA is higher in “PBM E-score” value: 0.0424 for the first, 0.123 for the second.

First: ACTCTTTA
Second: CAAGGCTA
The “PBM E-score” value of the first is lower: -0.0603 for the first, 0.275 for the second.

Going from ACATCCTA to AGCGACTA, the “PBM E-score” value falls from -0.0487 to -0.193.

Compared with CTCGCGCC, CTTGCATC is lower in “PBM E-score” value: 0.295 for the first, -0.0708 for the second.

Compared with ATGCCGCC, CTAATAAC is lower in “PBM E-score” value: 0.386 for the first, 0.0233 for the second.

First: AGTATAGG
Second: AAAAGACC
The “PBM E-score” value of the first is higher: -0.0433 for the first, -0.0771 for the second.

First: CATGCAAC
Second: CCAGCGAC
The “PBM E-score” value of the first is higher: 0.122 for the first, -0.138 for the second.

Compared with GAACGCAA, ACGGAAAT is higher in “PBM E-score” value: 0.0984 for the first, 0.271 for the second.

Compared with ACTGCGTC, ACTCGTTC is lower in “PBM E-score” value: -0.0165 for the first, -0.0868 for the second.

Compared with ATCGTCGG, CTTGCGAA is higher in “PBM E-score” value: -0.215 for the first, 0.199 for the second.

First: TAGCACCA
Second: GCGAGTCA
The “PBM E-score” value of the first is lower: -0.0587 for the first, -0.0455 for the second.
